The source gives no read counts; variants with many changes may rest on few reads.

Sequences and labels used below:
B1: LINE1-mini (parent)
chain: GGCAGAGCUCAACACAGCGUGGCAAAGUGGCUGUGGCUAGACUGCC

The series covers variants of B1. Kind of series: self-cleavage, relative activity (ratio to wild type); higher = more cleavage; in vitro, sequencing; the parent is a self-cleaving ribozyme.
In the case of A4U C10G G22A A24U, the self-cleavage worked out at 0.03. Under A4U A12U G33A stands 0.12; under A4U C10G G17U G27U G40U, 0.03. Under A4U C13U A26U stands 0.03; under A4U C8G G22A C46G, 0.06.

Consider A4U A12G C15G, for which the self-cleavage amounted to 0.03. With A4U C10A A14C C23A G27U U28G C42G, the self-cleavage was found to be 0.01. Consider A4U A14U G33C, for which the self-cleavage was determined as 0.24.

With A4U C13U U38C C46U, the self-cleavage was determined as 0.05. Turning to A4U A11C G44U, the self-cleavage was found to be 0.02. Regarding A4U C15G C23U A24U, the self-cleavage is 0.03. Turning to A4U A16U U38G, the self-cleavage is 0. Under A4U C8G C10U C45G stands 0.05; under A4U A16G A26C, 0.13. As for A4U C15U U28C G33A A41C C46U, the self-cleavage turned out to be 0.03. In the case of A4U A11U C42A U43C C46A, the self-cleavage came to 0.01. As for A4U C8A U9A G17A U20A G21A G40A C45U, the self-cleavage came to 0.09. Regarding A4U A26U G27A, the self-cleavage turned out to be 0.03. A4U C13A U34G: the self-cleavage amounted to 0.02. With A4U A12G A16G, the self-cleavage came out at 0.02.

For the variant A4U C8U G40U A41C, the self-cleavage worked out at 0.28. Take A4U C8G C15G C23A G27C G33U G36A: the self-cleavage is 0.03. In the case of A4U C15U C18A A24C G27U G33U, the self-cleavage is 0.05. As for A4U A16C G22U A26U G44U, the self-cleavage came out at 0.02. The value for A4U C15G G21A G40A was 0.01. The value for A4U C10G A25G G35A was 0.02. Take A4U A11G C42U: the self-cleavage came out at 0.02. As for A4U A11G C42A, the self-cleavage was found to be 0. Take A4U C8U G17A U20A G22C: the self-cleavage was 0.15. For A4U C15A A16C A24G, the self-cleavage turned out to be 0.05. As to A4U C10U A12U C23U, the self-cleavage worked out at 0.08. A4U A12G C23U G27C G36A: the self-cleavage is 0.01.

As to A4U C8U C31U, the self-cleavage came to 0.05. On to A4U C10A A11C G17U, for which the self-cleavage worked out at 0.07. A4U C8U A16U C18U C46U: the self-cleavage is 0.01. Turning to A4U C13U C18G G29C C31U, the self-cleavage was 0.04. A4U C10A C31G: the self-cleavage amounted to 0.02. With A4U C10A A16C G44A, the self-cleavage is 0.02.

A4U A14U A26G G44U: the self-cleavage came out at 0.1. Turning to A4U A25C G44A, the self-cleavage came out at 0.21. As for A4U A16G C31U U34C C37G, the self-cleavage stood at 0.

In the case of A4U A16U U32A, the self-cleavage was found to be 0.07. As for A4U A12C C31G, the self-cleavage stood at 0.04. The value for A4U A12G C15U A24G U34G C45G was 0.01; that for A4U A16G G17U was 0.14. For A4U A16C U28C U43A, the self-cleavage was determined as 0.06. Under A4U C8G C18A G40U stands 0.01. As for A4U A24G A39U, the self-cleavage was determined as 0.07. On to A4U A12G A26C, for which the self-cleavage was 0. The value for A4U C8U C10A C42U G44C was 0.03. Consider A4U A11G G21A, for which the self-cleavage amounted to 0.02. A4U A26U U34G G44C: the self-cleavage came to 0.03. For A4U A16C G21C G33C A39C G44C, the self-cleavage is 0.02. On to A4U C8A G19U G33A, for which the self-cleavage is 0.36. Turning to A4U A16C G29C, the self-cleavage turned out to be 0.05. For the variant A4U C15U A16C C18A U28A G40A, the self-cleavage came out at 0.07. Turning to A4U C8A G17A, the self-cleavage came to 0.23. A4U C18A A39C G40U: the self-cleavage was 0.02. In the case of A4U C13A G35U G40A G44C, the self-cleavage stood at 0.05. Under A4U C15U U43C stands 0.03; under A4U A11G G17U, 0.01; under A4U C8A G21U G22U, 0.28. Under A4U C13A A24G A41G C46G stands 0.2; under A4U C15A C18U G22U A24C G33A A39U, 0; under A4U C8A A25G, 0.07. Regarding A4U A12U C45G, the self-cleavage turned out to be 0.03. Turning to A4U C13U G35U, the self-cleavage is 0.09. On to A4U C10G U38C A39G G44A C46A, for which the self-cleavage was 0.01.

As to A4U C15A C18U C46U, the self-cleavage came to 0.01. In the case of A4U C8G C18G, the self-cleavage was determined as 0.05.

As to A4U A24G G27C G35U A39U, the self-cleavage came out at 0.08. Turning to A4U C8A U28C G29A G35A, the self-cleavage amounted to 0.01.

As for A4U C10U U28C, the self-cleavage came out at 0.04. Under A4U A11C C37U stands 0.02; under A4U A11U C15A G33A, 0.02; under A4U C10A C42G C46A, 0.

A4U C15G G36A C37A C45U: the self-cleavage was found to be 0.02. For A4U A11G C23A A26U C31G U38A G40U, the self-cleavage is 0. The value for A4U A25G U34C was 0.05. Regarding A4U C10U G40C, the self-cleavage is 0.04.

Turning to A4U C13G C31G, the self-cleavage came out at 0.08. Consider A4U A12G G30A C42A G44U C45G, for which the self-cleavage was determined as 0.03.

On to A4U C8A A26C C42G U43A, for which the self-cleavage was 0.06. For the variant A4U C15U G17A U20A G30A G36C, the self-cleavage came out at 0.01. For the variant A4U C15U G40C, the self-cleavage was 0.02. As to A4U A16C A26G A41C, the self-cleavage came out at 0. The value for A4U C15A G17C was 0.06; that for A4U C8U U34G U38G was 0.05; that for A4U C15U U28A U43A was 0.29. Regarding A4U A16U U32G U38C, the self-cleavage stood at 0.05. In the case of A4U C10G A25G A41U, the self-cleavage turned out to be 0. With A4U A11G A12G C13U, the self-cleavage amounted to 0.03. Regarding A4U C10G A24U C31G C46G, the self-cleavage was determined as 0.01. Under A4U A25C U28A U34C stands 0.05. As to A4U C10A G17C A24G G29U, the self-cleavage came out at 0.03.

For the variant A4U A25G U28G, the self-cleavage is 0.1. The value for A4U C15G G29U was 0.05; that for A4U A12C G19C was 0.03. On to A4U A14G A16G, for which the self-cleavage is 0.04. For the variant A4U C8G A12C A14U, the self-cleavage amounted to 0.07. With A4U C15U G35U, the self-cleavage amounted to 0.72. As to A4U A16C G19U C46U, the self-cleavage was 0.05. In the case of A4U C15U G29U A41U, the self-cleavage came out at 0.

As to A4U C15G G33U C45A, the self-cleavage is 0.02. Take A4U C10G A14C: the self-cleavage was 0.02. With A4U A11C C13U A26U U34A C46G, the self-cleavage was determined as 0.02.

Regarding A4U A12G C31A C46U, the self-cleavage came to 0.03. The value for A4U A14U G17A A26G A41G C42U was 0.2; that for A4U A16G G36C was 0.02. Regarding A4U C10G A16C A39C U43A, the self-cleavage is 0.01.

On to A4U A12G G17A U34C, for which the self-cleavage stood at 0.09.

With A4U A12C A24U U32G, the self-cleavage was 0.03. The value for A4U A11C G29U was 0.05; that for A4U A12U A14G U28A G35C was 0.07; that for A4U A11G A14G U43C was 0. A4U A12U C13A G17A A39G: the self-cleavage turned out to be 0.02. For the variant A4U C8A A25C G30A C37U, the self-cleavage is 0.1. Turning to A4U C8G G29A, the self-cleavage was 0.05. A4U C10U G40C C45U: the self-cleavage turned out to be 0.07. In the case of A4U A12U G40A, the self-cleavage came to 0.01.

In the case of A4U C10U U43C G44A, the self-cleavage was 0.06.

Turning to A4U A26G C42G, the self-cleavage came out at 0.02.

As to A4U C10A A14U U20C, the self-cleavage was determined as 0.01.

As to A4U A11G A26G G29C U43A, the self-cleavage was 0.01. For A4U C8A C13U G40A, the self-cleavage is 0.06. Under A4U A39C G40A G44A stands 0.01; under A4U C10U G30U A39U C46U, 0.04; under A4U C8G G27C, 0.11. Under A4U C8A A12U A24G A26G C31U stands 0.03; under A4U C13U C18U C46A, 0.05. Under A4U C15U C42U C45G stands 0.09. Consider A4U C10G C13U, for which the self-cleavage was 0.02.

Take A4U A11C C15U G36C: the self-cleavage worked out at 0.02. On to A4U C10A A16C, for which the self-cleavage was found to be 0.03.

Turning to A4U C8A A16C G30U U34G G35U C45A, the self-cleavage stood at 0.02. On to A4U A11G G27A, for which the self-cleavage worked out at 0.01. As to A4U A25C G33A U34A U38C, the self-cleavage was determined as 0.02. Turning to A4U A24C G33U, the self-cleavage is 0.19. As to A4U A14G G19C G35A U43C, the self-cleavage was 0.02.

With A4U C8G A11G A16C G44A, the self-cleavage was 0. Under A4U A12C C13A A14C G17A G30U U32G stands 0.01.

Turning to A4U C8A A12G C23U, the self-cleavage is 0.16.

As for A4U C8A G36A, the self-cleavage was 0.22. Under A4U C15A G44U stands 0.07. As for A4U C18A C31U, the self-cleavage turned out to be 0.

Consider A4U C13G G17A A25G, for which the self-cleavage worked out at 0.04.

In the case of A4U C8A C23A A24G C37A, the self-cleavage amounted to 0.17.

In the case of A4U C10A G17A U28G C42U, the self-cleavage was determined as 0.05. For A4U C15G A24C U34C, the self-cleavage was 0.03. Under A4U A12U G17C A24C stands 0.05; under A4U A16C A26C, 0.05. In the case of A4U C15G A16C, the self-cleavage came out at 0.28.

Consider A4U A11C A16G G19U G27A G29U, for which the self-cleavage was 0. As to A4U C8A A16U U34G G35C A39C G40U, the self-cleavage was determined as 0.11. With A4U C8G A12U, the self-cleavage was 0.06.

As for A4U C10A G19A G21U G44U, the self-cleavage amounted to 0.04. As for A4U C8G C15A U28G A39G, the self-cleavage stood at 0.06. The value for A4U C13U C15A U20A A24U G29A was 0.02; that for A4U C8U A16G U20A G21A G27A was 0.08; that for A4U C18A A26U G35U C37A was 0.03. For A4U C18A A41U, the self-cleavage stood at 0.02.

With A4U C13A C23A, the self-cleavage is 0.15. In the case of A4U A11G A26U, the self-cleavage is 0.07.

With A4U C13A G21A G35U C37U, the self-cleavage was found to be 0.24.

Consider A4U C10A G19C G27U G33U, for which the self-cleavage worked out at 0.02. Consider A4U C13G G35U, for which the self-cleavage was determined as 0.21. A4U C13A G21A: the self-cleavage came out at 0.14.
